PubChem BioAssay AID1508623 (National Center for Advancing Translational Sciences (NCATS), 2021)
Screen size: about 48,000 compounds; about 450 (0.94%) were called active. Not shown: some 19% with an inconclusive outcome. The call rests on the fitted dose curve; in most records, active means well fitted inhibition curve with a large enough effect; inconclusive means small, poorly fitted or top-dose-only effect; inactive means no such curve, though single readings can be large or run the other way. The list shows a part of the results.

Assay: Primary qHTS for Identification of Small Molecule Inhibitors of Huntingtin Promoter Activity; further: nearly all actives have a fitted effect of over 50% in size
Conditions: HEK293 HTT promoter firefly luciferase reporter (activity 0% = vehicle and -100% = no light), 24 h; series mostly up to 57.5 µM; activity change, negative = inhibition: at the top concentration
How it was run: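 HEK293 Fluc reporter, 2,500 cells/well, 24 h pre-culture; cpds up to 57.5 uM final, 24 h 37 degrees C; Dual-Glo, 10 min RT; normalized vehicle = 0%, zero RLU = -100%.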

Activity change, negative = inhibition, inactive:
O=C(CSc1nnc2[nH]c(=O)cc(-c3ccccc3)n12)Nc1cc(C(F)(F)F)ccc1Cl 36.4%
CCOc1ccc(NC(=O)CN(C)S(=O)(=O)c2cnc[nH]2)cc1 3.13%
Nc1c(C(=O)Nc2cccc(C(F)(F)F)c2)c2ccccn2c1C(=O)c1ccccc1 -1.64%
Cc1ccc2oc(-c3cc(NC(=O)/C=C/c4ccco4)ccc3Cl)nc2c1 0%
CC(=O)Nc1nonc1-c1nc2ccccc2n1Cc1ccccc1Br 2.6%
COc1cc2c(cc1OC)C(COc1ccc3c(C)cc(=O)oc3c1)N(C(=O)CC(C)C)CC2 (centres undefined) -8.94%
CCC1Nc2cc(Cl)c(S(N)(=O)=O)cc2S(=O)(=O)N1 (centres undefined) -6.49%
Brc1ccc2nc(SCCOc3ccccc3)[nH]c2c1 8.85%
COc1ccc(NC(=O)CCc2c(C)nc3c(-c4ccc(F)cc4)c(C)nn3c2C)c(OC)c1 -11.8%
Cc1ccccc1CN1CCCN(CC(=O)Nc2ccc3c(c2)OCCO3)S1(=O)=O -5.72%
COC(=O)c1cc(NC(=O)c2ccc(-c3ccc(Cl)cc3Cl)o2)cc(C(=O)OC)c1 -7.64%
CCOC(=O)c1noc2nc(C)n(Cc3ccc([N+](=O)[O-])cc3)c(=O)c12 -17.5%
Cc1cccc(Cn2nnc3c(=O)[nH]c(C4CCN(C(=O)c5ccc(F)cc5)CC4)nc32)c1 -8.87%
CN1CCN(C(CNC(=O)c2ccccc2)c2ccc3c(c2)OCO3)CC1 (centres undefined) -11.3%
CCn1c(=O)cc(SCC(=O)N2CCN(c3ccccc3F)CC2)c2ccccc21 -3.38%
O=C(NCc1cccc(Cl)c1)C1CCCN(c2ncnc3onc(-c4ccc(F)cc4)c23)C1 (centres undefined) -22.5%
CCOc1ccc(NC(=O)c2c(NC(=O)c3cccs3)sc3c2CCC(C(C)(C)C)C3)cc1 (centres undefined) -6.27%
CNC(=O)C1CCN(c2nc3ccccc3nc2C(F)(F)F)CC1 -19.9%
O=C(Nc1ccc(C(F)(F)F)cc1)N1CCC(N2CCCCC2)CC1 -4.19%
COc1cc(Cl)c(C)cc1NC(=O)c1cnc2c(-c3cccc(C)c3)c(C)nn2c1C -24.7%
CNC(=O)c1ccc(CSc2nc3ccncc3n2Cc2ccc(C)cc2)cc1 -25.1%
CCCN(C(=O)Cn1cc(S(=O)(=O)N2CCN(c3ccccc3F)CC2)c2ccccc2c1=O)c1cccc(C)c1 -14.7%
CC(C)CN(CCNC(=O)c1cc(-c2ccc(Cl)s2)nc2ccccc12)CC(C)C -5.06%
CCOc1ccc(OCC)c(Nc2nc3ccc(Cl)cc3n3cnnc23)c1 -19.4%
COc1cccc(CNC(=O)Cn2c(C)c3cnn(-c4ccccc4)c(=O)c3c2C)c1 -11.7%
CC(C)(C)C(=O)Cn1c(=O)n(-c2ccc(Cl)c(Cl)c2)c(=O)c2c3c(sc21)CCCC3 -7.84%
Cc1cc(C)cc(N2CCn3c2nc2c3c(=O)n(CCCc3ccccc3)c(=O)n2C)c1 6.78%
COCc1cc(C)nc2sc(C(=O)Nc3cc(C)ccc3F)c(N)c12 69.9%
Cc1ccc(CNC(=O)CCCn2c(=O)c3ccccc3n(Cc3ccc(Cl)cc3)c2=O)cc1 -4.35%
CN(C(=O)CSc1nnc(-c2ccc([N+](=O)[O-])cc2)o1)c1ccccc1 -3.26%
COc1ccc(CCNC(=O)Cn2cc(C(=O)c3ccc(F)cc3)c(=O)c3ccc(C)nc32)cc1OC 0.557%
Cc1ccc(CNC(=O)CCC(=O)N2CCSc3ccccc32)cc1 -17.1%
Cc1cccc(-c2nc3ccccc3n3c(-c4ccccc4)c4c(=O)n(C)c(=O)n(C)c4c23)c1 -12.1% [at 11.5 µM]
O=C(Nc1ccc(F)c(Cl)c1)N1CCC(CN2CCc3ccccc3C2)CC1 -24.3%
CC(C)(C(=O)O)c1ccc(C(O)CCCN2CCC(C(O)(c3ccccc3)c3ccccc3)CC2)cc1 (centres undefined) 7.18%
O=c1cc(N2CCOCC2)oc2c(-c3cccc4c3sc3ccccc34)cccc12 -10.7%
CCC(C)NC(=O)CCc1c(C)nc2cc(-c3ccc(OC)cc3OC)nn2c1C (centres undefined) -9.01%
Cc1cccc(CCNC(=O)C2CCN(c3nc4ccccc4nc3C(F)(F)F)CC2)c1 -9.98%
CCc1ccc(NC(=O)Cn2cnc3sc(C)c(S(=O)(=O)N4CCN(c5ccccc5OC)CC4)c3c2=O)cc1 -8.23%
COc1ccc(-n2nnc(-c3nc(-c4cccs4)no3)c2N)cc1 72.8%
Cc1oc(-c2ccccc2F)nc1CSc1nnc(C)n2c1cc1occc12 -3.83%
CC(C)(C)OC(=O)N1CCC(c2c(C(=O)N3CCOCC3)cnn2-c2cccc(F)c2)CC1 -6.82%
COC(=O)c1ccccc1-n1cc2c(c1-c1cccc(C)c1)c(=O)n(C)c(=O)n2C -25%
CCOC(=O)c1cnc2ccc(Cl)cc2c1Nc1ccc(N2CCOCC2)cc1 -31.9%
O=C(Nc1ccc(C(=O)N2CCN(c3ccccc3)CC2)cc1)c1nsc2ccccc12 -23.7%
CCCN(CCC)CCNC(=O)C1CCN(c2nc3ccc(CC)cc3s2)CC1 24.7%
Cc1ccc(S(=O)(=O)c2cn(Cc3ccc(F)cc3)c3cc(N4CCCC4)c(F)cc3c2=O)cc1 -6.12%
CCc1ccccc1NC(=O)C(=O)NCCc1sc(-c2cccc(F)c2)nc1C -28.6%
COc1cc2c(cc1O)CCC1C2CC[C@@]2(C)C1CC[C@@H]2O (some centres undefined) -15.9%
CC(C)Oc1ccc(CNC(=O)Cn2ncn3nc(-c4cccs4)cc3c2=O)cc1 -23.5%
COC(=O)c1ccccc1-n1c(CCC(=O)O)ccc1-c1ccccc1 -8.87% [at 11.5 µM]
COc1cccc(CNC(=O)c2ccc3c(c2)nc2n3CCC(C)C2)c1OC (centres undefined) 4.79%
COc1ccc(C(=O)NCC(c2ccco2)S(=O)(=O)c2cccs2)cc1OC (centres undefined) -22.7%
Cc1ccnc(NS(=O)(=O)c2ccc(NC(=O)c3nc(SC(C)C)ncc3Cl)cc2)n1 -18.6%
COc1cccc(C2Nc3ccccc3-c3nnc(SCc4ccccc4)nc3O2)c1OC (centres undefined) 2.52%
Cc1ccc(S(=O)(=O)c2nc(-c3ccccc3)oc2SCC(=O)NC2CCCCC2)cc1 -2.53%
COc1ccc(NC(=O)C(CC(C)C)NS(=O)(=O)c2ccc3c(c2)oc(=O)n3C)cc1Cl (centres undefined) -27.1%
CCOc1ccc(NC(=O)Cn2c(=O)n(Cc3nc(-c4ccccc4)no3)c(=O)c3ccccc32)cc1 -14.3%
CCOC(=O)C1=C(CS(=O)(=O)c2ccc(C)c(C)c2)NC(=O)NC1c1ccccc1OCC (centres undefined) -12.2%
